According to patent publication US20060134248A1, “Hop acids as a replacement for antibiotics in animal feed” (priority 2002, published 2006):
Marks after values point to notes of the source that are not given here.

Experiments:
Settings in all cases: hop acids 2 ppm, monensin 6 ppm
[1] = test system: rumenal fluid containing a bacterial mixture commonly found in cattle; experiment: In vitro fermentation of corn in artificial rumen (gas production, substrate disappearance, end products)
[2] = test system: rumenal fluid containing a bacterial mixture commonly found in cattle; experiment: In vitro fermentation of barley in artificial rumen (gas production, substrate disappearance, end products)
[3] = test system: rumenal fluid containing a bacterial mixture commonly found in cattle; experiment: In vitro fermentation of alfalfa in artificial rumen (gas production, substrate disappearance, end products)

## CC[C@@]1([C@@H]2O[C@@H]([C@H]3O[C@@](O)(CO)[C@H](C)C[C@@H]3C)C[C@@H]2C)CC[C@H]([C@]2(C)CC[C@]3(C[C@H](O)[C@@H](C)[C@@H]([C@@H](C)[C@@H](OC)[C@H](C)C(=O)O)O3)O2)O1 [monensin]
[1]
  Disappearance, DM: 91^a %
  Disappearance, Starch: 95^a %
  End Products, Acetate: 26^f mole %
  End Products, Butyrate: 35^a mole %
  End Products, Propionate: 20^e mole %
  End Products, Valerate: 17^b mole %
  End Products, pH: 5.0^c
  Gas Production, Rate: 8.9^b %/hr
  Gas Production, Total: 398^a mL/72 hr
  Gas Production, mL/g fermented: 233^ab mL/g fermented
[2]
  Disappearance, DM: 83^b %
  Disappearance, Starch: 99^a %
  End Products, Acetate: 32^d mole %
  End Products, Butyrate: 28^b mole %
  End Products, Propionate: 24^c mole %
  End Products, Valerate: 14^b mole %
  End Products, pH: 5.0^c
  Gas Production, Rate: 9.1^b %/hr
  Gas Production, Total: 336^a mL/72 hr
  Gas Production, mL/g fermented: 212^bc mL/g fermented
[3]
  Disappearance, DM: 60^b %
  Disappearance, NDF: 32^bc %
  End Products, Acetate: 60^c mole %
  End Products, Butyrate: 6^c mole %
  End Products, Propionate: 31^c mole %
  End Products, Valerate: 2^a mole %
  End Products, pH: 5.8^f
  Gas Production, Rate: 9.2^a %/hr
  Gas Production, Total: 320^a mL/72 hr
  Gas Production, mL/g fermented: 263^ab mL/g fermented
  Gas production (rate, total) versus control, in words: did not reduce
  Propionate versus control, in words: increased significantly
